Data: PubChem BioAssay AID1745853 (National Center for Advancing Translational Sciences (NCATS), 2022)
This is one part of the list. Further columns of the screen follow, without active or inactive calls.

Assays:
Assay in all cases: Primary Screen for Target Class Profiling of Small Molecule Inhibitors of Methyltransferases
[1] = molecular target: Glycine N-methyltransferase (Homo sapiens) (UniProt Q14749); settings: purified enzyme, MTase-Glo SAH luminescence; measured here: GNMT inhibition; at 40 µM; stronger effect = lower value
Outline: (§1)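 Each enzyme was assayed with SAM and its substrate. SAH formation detected by MTase-Glo luminescence; single-point 40 uM screen[…].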

[2] = molecular target: Guanidinoacetate N-methyltransferase (Homo sapiens) (UniProt Q14353); settings: purified enzyme, MTase-Glo SAH luminescence; measured here: GAMT inhibition; at 40 µM; stronger effect = lower value
Outline: as §1

[3] = molecular target: Histamine N-methyltransferase (Homo sapiens) (UniProt P50135); settings: purified enzyme, MTase-Glo SAH luminescence; measured here: HNMT inhibition; at 40 µM; stronger effect = lower value
Outline: as §1

[4] = molecular target: Nicotinamide N-methyltransferase (Homo sapiens) (UniProt P40261); settings: purified enzyme, MTase-Glo SAH luminescence; measured here: NNMT inhibition; at 40 µM; stronger effect = lower value
Outline: as §1

[5] = molecular target: Phenylethanolamine N-methyltransferase (Homo sapiens) (UniProt P11086); settings: purified enzyme, MTase-Glo SAH luminescence; measured here: PNMT inhibition; at 40 µM; stronger effect = lower value
Outline: as §1
% is set by controls: 0 for no effect and ±100 for the full control effect.

SMILES	activity change, negative = inhibition [1] [%]	activity change, negative = inhibition [2] [%]	activity change, negative = inhibition [3] [%]	activity change, negative = inhibition [4] [%]	activity change, negative = inhibition [5] [%]
S=C(c1ccc(-c2ccc(Cl)c(Cl)c2)o1)N1CCCCC1	1.72	-12.1	10.8	-40.2	-12.5
Cc1nn(C)c(C)c1NC(=O)CC[C@H]1NC(=O)c2ccccc2NC1=O	0.662	-3.44	2.06	-5.74	-9.77
CCCSCCCN1C(=O)c2cc3occc3n2CC1(C)C(=O)NC1CCCCC1C (stereo unspecified)	0.555	6.82	-0.497	-2.24	-1.78
COc1ccc(OC)c(CN2CCC3(CC2)Nc2ccccc2NC3=O)c1	-3.25	0.589	-13.3	-1.72	0.666
CC1CCCCN1S(=O)(=O)c1ccc(NC(=O)CN2C(=O)c3ccccc3S2(=O)=O)cc1 (stereo unspecified)	-2.1	2.31	-0.196	-5.46	-3.05
CC(=O)Nc1c2n(c3ccc(F)cc13)CC(C)(C(=O)NC1CCCCCC1)N(CCN(C)C)C2=O (stereo unspecified)	0.216	-3.4	-0.744	-0.063	1.82
NNCCc1ccccc1	-7.56	10.4	-20.9	-10.4	-7.7
COc1ccc(Cl)c(Nc2ncnc3cc(OCC4CCN(C)CC4)c(OC)cc23)c1	-14.2	4.01	-39.9	-13.9	-14.9
CN1C(=O)c2cc(C(=O)NCCC3=CCCCC3)nn2CC1(C)C(=O)NC1CCCCCC1 (stereo unspecified)	4.47	0	3.1	4.95	0.544
Nc1nc(Nc2ccc3c(c2)CC[C@@H](N2CCCC2)CC3)nn1-c1cc2c(nn1)-c1ccccc1CCC2	–	1.54	–	-29.3	-13.6
CCOC(=O)c1cc2n(n1)CC(C)(C(=O)NC1CCCC1)N(Cc1ccc(OC)cc1)C2=O (stereo unspecified)	5.29	1.08	8.43	10	5.51
C=C1CC[C@@H]2[C@](C)(CO[C@@H]3O[C@H](CO)[C@@H](O)[C@H](O)[C@H]3O)[C@H](O)CC[C@@]2(C)[C@@H]1C/C=C1/C(=O)OC[C@H]1O	-4.51	-17.7	2.51	-27.4	-2.69
Cc1ccccc1N1C(=O)c2cc3occc3n2CC1(C)C(=O)NC1CCCCCC1 (stereo unspecified)	2.42	0.547	5.32	-0.536	-1.15
CSCC(=O)N[C@H]1CCN2C(=O)c3ccc(Cl)cc3NC(=O)[C@@H]2C1	-0.988	-0.621	-13.6	0.833	0.922
COCCN1C(=O)c2c(NC(C)=O)c3cc(OC)ccc3n2CC1(C)C(=O)NC1CCCCCC1 (stereo unspecified)	2.33	0	6.5	5.78	0.311
CCOCCOC1CCN(C(=O)c2cccc3[nH]ccc23)CC1	-6.74	-10.4	-3.58	-21.9	-19.3
CCCCn1c(-c2ccccc2)nc(-c2ccccc2)c1CN(Cc1ccc2c(c1)OCO2)Cc1ccc2c(c1)OCO2	-7.52	-37.3	0.123	-42.4	-16.4
C=CCn1c(=O)c2ccc(C(=O)NC(C)C)cc2n2c(=O)[nH]nc12	1.72	0.764	8.25	7.81	0.552
Cc1ccc(C(C(=O)O)N2CCC(CCN3CCCC3=O)CC2)cc1C (stereo unspecified)	-1.15	-4.79	-0.305	-0.448	-4.18
CCOC(=O)c1ccc2c(c1)[C@@H]1C=CC[C@@H]1[C@H](c1cccc(Br)c1)N2	-13.1	-3.53	-12.8	-11.6	-16.1

SMILES	activity change, negative = inhibition [1] [%]	activity change, negative = inhibition [2] [%]	activity change, negative = inhibition [3] [%]	activity change, negative = inhibition [4] [%]	activity change, negative = inhibition [5] [%]
C[C@@]1(C(=O)Nc2ccc(F)nc2)CCCN1c1nc(Nc2cc(C3CC3)[nH]n2)c2cccn2n1	-3.76	-2.73	0.338	-23.9	-8.38
O=C1NC(=O)/C(=C/c2ccc3c(c2)OCO3)S1	–	0.398	–	-21.2	-8.34
CCNC(=O)NCCCOc1cccc(CN2CCCCC2)c1	1.66	6.18	-7.68	-11.3	-3.18
Cc1nnc2n1CCC(NC(=O)CCCc1c[nH]c3ccccc13)CC2 (stereo unspecified)	-2.74	-6.67	-1.38	-10.4	-5.95
COc1cccc(CN2CCCC3(CCN(C(=O)c4cnc(C)cn4)C3)C2)c1 (stereo unspecified)	0.212	0.95	-0.868	-2.66	-0.347
COc1ccc(-c2ccc(N)[n+](CCCC(=O)O)n2)cc1	-2.27	7.14	4.55	-6.16	4.93
C=C[C@]1(C)C[C@H](O)[C@H]2C(=C)C(=O)O[C@@H]2[C@H]1C(=C)CO	-3.33	-3.56	4.17	-11.1	-5.79
CCCn1cnc2c1CN(S(=O)(=O)c1ccc(F)cc1)[C@H](C(=O)OC)C2	-4.18	-7.17	-1.03	-13.7	-8.35
CCCN(CCC)C(=O)c1coc(COc2ccc3sc(C)nc3c2)n1	-3.18	3.69	1.72	-6.81	13.4
CCc1ncc(-c2c(-c3ccccc3)ncn2CCCOc2cccnc2)cn1	-1.02	1.49	-4.11	-4.42	4.67
CCCN1C(=O)c2c(C(=O)NCCc3ccc(Cl)cc3)ncn2CC1(C)C(=O)NCc1ccc(C)cc1 (stereo unspecified)	-1.07	0	10.7	5	-13.7
CCOCCN1C(=O)COC[C@@H]1[C@H](O)c1ccc(NC(=O)c2cccc(C#N)c2)cc1	-3.24	-1.69	0.403	-5.3	-27.4
O=C(NC1CCCC1)N1CCCC(Cn2cnc3cccnc32)C1 (stereo unspecified)	-0.89	0.47	1.9	-2.59	2.46
CN(CCOc1cccc(Cl)c1)C(=O)c1cccc(CCC(C)(C)O)c1	-4.2	-0.505	-0.26	-8.74	0.709
COCCCNC(=O)C1(C)Cn2nc(-c3ccccc3)cc2C(=O)N1Cc1ccc(OC)cc1 (stereo unspecified)	0.109	0	1.3	0.243	-3.47
NC1(C(=O)O)CCCCC1	2.85	14.4	5.71	-1.37	12.5
COc1cccc(CSc2nnc3n(Cc4ccccc4)c(=O)c4ccccc4n23)c1	1.43	0	-0.282	-3.54	2.5
COC(=O)c1cc2n(n1)CC(C)(C(=O)NC1CCCCC1)N(c1ccc(C)cc1C)C2=O (stereo unspecified)	3.79	0	7.98	8.96	5.68
CCN(CC)CCN1C(=O)c2ccc(-c3ccco3)n2CC1(C)C(=O)NC1CCCCC1 (stereo unspecified)	3.89	0	7.32	8.61	1.06
COc1cc(Br)c(Nc2nc(-c3c(C)nc4ncccn34)cs2)c(Br)c1	-12.8	-2.81	-5.88	-27.6	-3.27
